# Data from publication PMC12136788.
# Some of the results follow.
# B1: 41434223_41434343_255_3pUTR_ENSMUSG00000021365_ENSMUST00000163623|mouse|control|control (ssRNA)
# RNA: GGGAGUUCUACAGUCCGACGAUCCCCGGUUCCCUGGGACAAUGCCUUGGCGACCGUGGAGGGAACACAGCCACCAUCCCUCAAGCCCUCCUGUGUUCUGCUCUAUGACAGUUAAGAUGUCUCCCUUGCGGAAGGCCAGCUCCUCAACAGAGGAUUGAGCAUCA
# B2: chr2:216981417:216981418:+_ENSG00000079246_ENST00000392132|hu_hu|hu_hu_hu_mus_True|48_98 (ssRNA)
# RNA: GGGAGUUCUACAGUCCGACGAUCCUGAUACUGGUCCCCACCAGAAAGGGCAUUAUCAGUGCCAUCUGUGCCAUAGAGGACUAACGCAAUCUCAUCCUUGCUCUCCGAAAAUACCUGUCGUUGGACAAACAUAGUCAUCACUUUCAACAGAGGAUUGAGCAUCA
# B3: chr4:130382032:130382033:+_ENSMUSG00000025743_ENSMUST00000070478|mus_mus|FALSE|FALSE (ssRNA)
# RNA: GGGAGUUCUACAGUCCGACGAUCCCAGGCCUUGGUAUCUUUAUCUUUAUCCAUCUGACCCUCUCCUCCUUCUCUUAUUUAAGUUUUGGCCAUGAACUCAGGACAGGGUUGGUUAAUAAACAGGUUAUAGGGAGAGAACGGGUACAACAGAGGAUUGAGCAUCA
# B4: chr1:163112212:163112213:-_ENSG00000143248_ENST00000313961|hu_hu|hu_hu_hu_mus_False|1_1 (ssRNA)
# RNA: GGGAGUUCUACAGUCCGACGAUCUUUUAUUAUCAGUAAGAGUGAGUUACAUACUAGGCAAAGUAUUGGAUACAAUAAUCAGGAAACAAACACUAUUGGUCCAGAAUUUAAAACUUUAUGAGCGAAGUGCUGGCACAGGAUUUACAACAGAGGAUUGAGCAUCA
# B5: chr10:7844279:7844280:+_ENSG00000165629_ENST00000356708|hu_hu|motif|central (ssRNA)
# RNA: GGGAGUUCUACAGUCCGACGAUCCUCAGAAGCAUUCUUGCUGGCAUUGUCCAUGGCUGUCAUCCUGGCACUCUGCUCACGGGUGGUGGACUCCUUCAGAGAGUAGUAGAUGAUGUUGGCCAGAUUGUAUUCUUGGUAAUUUUGCAACAGAGGAUUGAGCAUCA
# B6: chr4:115894766:115894767:+_ENSMUSG00000028698_ENSMUST00000030464|mus_hu|mus_mus_mus_hu_True|8_78 (ssRNA)
# RNA: GGGAGUUCUACAGUCCGACGAUCUUCCACACGGAAAUGUACUUCGGGUUUUCCAACGCCAGUACAAAGUCCGGCCAAACUACCCGAACAGGGUCCUCCCCCUCUCUCCUACAGAACACAACAAAAUAACAAAAUACUUUCAAGCAACAGAGGAUUGAGCAUCA
# B7: chr1:29069439:29069440:+_ENSG00000198492_ENST00000541996|hu_mus|FALSE|FALSE (ssRNA)
# RNA: GGGAGUUCUACAGUCCGACGAUCGCUGGUUUUGGAGGAGCAAUAGUAGCUGGAGGCAAACUGCUAGAAGCCACAAUGUUACUAGUGAUGGACCCACUACCAACAGCAGAGCCUACAACUUUUGGAACACUGCUUGCAACUUCUCAACAGAGGAUUGAGCAUCA
# B8: chr11:87793471:87793472:-_ENSMUSG00000020483_ENSMUST00000020775|mus_mus|mus_mus_mus_hu_False|18_68 (ssRNA)
# RNA: GGGAGUUCUACAGUCCGACGAUCUGGACUUGAAAAUAAAAGAAUAAGCUGGAUCCCCCACCCCCCCACAGUGUCAACCCUACACGAGAGUUUUGAAGGCGACUCAUGAAAAUCAGCCUCAAUUGGCGCAAUGACCACCCCACCCAACAGAGGAUUGAGCAUCA
# B9: chr19:16212804:16212805:+_ENSG00000167460_ENST00000300933|hu_mus|hu_hu_hu_mus_False|58_68 (ssRNA)
# RNA: GGGAGUUCUACAGUCCGACGAUCAACAAUUCUGGAGUGAAGGAAAGAUGUAACAUGGAACAGCAUUCCAUCUAUUAAUUACUAUAUAUGGGCAACAAUGAUCACCCCAGCAUUCUCGCUUGGAAUGCUUAAAGACAAUCUGUUCAACAGAGGAUUGAGCAUCA
# B10: 82114108_82114841_502_3pUTR_ENSMUSG00000022456_ENSMUST00000023095|mouse|control|control (ssRNA)
# RNA: GGGAGUUCUACAGUCCGACGAUCUUCGUACUGUUCGUUGAUGUAUUUCUCAAUGGGCUCCCAGCAGUUUUCAUUGUUGAUCUGGUCUCCAAAGCCUGGUGUGUCGAUGACUGUCAGCUUCAUUUUGACACCACCUUCCUCUAUCAACAGAGGAUUGAGCAUCA
# B11: chr1:225611761:225611762:-_ENSG00000143815_ENST00000272163|hu_mus|hu_hu_hu_mus_True|18_38 (ssRNA)
# RNA: GGGAGUUCUACAGUCCGACGAUCCCAGGCCAUCGGCCUCUGACCACUUCACCCUCAACAAACUUCCUACUUGGCAUUUUCUAAAAUUAGUCUGGCCCAGGUUCCGGGGGAACUCCAGACGGCUCCCGACAGUCACCAGCAGCCCAACAGAGGAUUGAGCAUCA
# B12: chr13:100204638:100204639:-_ENSMUSG00000052727_ENSMUST00000064762|mus_hu|motif|central (ssRNA)
# RNA: GGGAGUUCUACAGUCCGACGAUCAGGAGUGGGCACCUGGCCAGUGAGAUCCUUUUGGGUGGCCAGUGGCUGCUUCAGAAAGUCGGGAUGUUUGAGCUUUUCCAACCCUUCCAGGAUGUUGUACUGGGUGCUGUUCCCAGGAAACAACAGAGGAUUGAGCAUCA
# B13: chr18:24791317:24791318:+_ENSMUSG00000024271_ENSMUST00000025120|mus_mus|motif|central (ssRNA)
# RNA: GGGAGUUCUACAGUCCGACGAUCACUUCCAGUGAAGAAGUACUUGUUAUCAGGACUCCAGUCACAAGACCAAAUGAUUCGGCGGUGCACAGAAGUAAUUUUGUUGGUGAAUGCAAAGAGACUAAAAAAUGGAUCAAACUCCGACAACAGAGGAUUGAGCAUCA
# B14: 42180163_42180283_7225_3pUTR_ENSMUSG00000061080_ENSMUST00000099761|mouse|control|control (ssRNA)
# RNA: GGGAGUUCUACAGUCCGACGAUCUUUUCCUACCCAUGAAAGGCUAUUAGGCUACAGUUCAACUGUUACAUUUCCCAAUAUUACGAACAAGGCAGCCACCUCAGCUAUUUUGGUGCCCUCGCUUUAAUAUGAAAAUGCCUUUCCCAACAGAGGAUUGAGCAUCA
# Biological target: T1, UNK ZnF1-3 (human, UniProt Q9C0B0 31-174)
# T1 sequence: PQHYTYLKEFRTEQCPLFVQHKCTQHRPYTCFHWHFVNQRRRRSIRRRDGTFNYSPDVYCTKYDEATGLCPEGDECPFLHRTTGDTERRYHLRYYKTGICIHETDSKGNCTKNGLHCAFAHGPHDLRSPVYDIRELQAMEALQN
# Experiment: nsRBNS (natural sequence RNA bind-n-seq); RBNS binding buffer (assumed for nsRBNS): 25 mM Tris pH 7.5, 150 mM KCl, 3 mM MgCl2, 0.01% Triton X-100, 500 ug/ml BSA, 20 U/ml SUPERase-In, 4 C; UNK is unkempt and MSI1 is Musashi-1; names of the RNAs are library labels; protein concentration not given here; high values mean tight binding
row,Binder,binding signal [enrichment R]
1,B1,0.725
2,B2,0.917
3,B3,1.04
4,B4,1.17
5,B5,0.802
6,B6,1.22
7,B7,1.23
8,B8,1.72
9,B9,0.969
10,B10,0.345
11,B11,1.45
12,B12,1.04
13,B13,1.57
14,B14,0.716
